Laboratory results taken from patent US20240082414A1, “HUMAN TUMOR NECROSIS FACTOR ALPHA ANTIBODY GLUCOCORTICOID CONJUGATES” (Eli Lilly and Company, priority 2022, published 2024).
Changes are numbered by the printed parent chain.

B1: Ab6: anti-human TNFα antibody, HC SEQ ID NO: 35, LC SEQ ID NO: 36 (antibody)
heavy: QVQLVQSGAEVKKPGASVKVSCKASGYTFTGYYIHWVRQAPGQGLEWMGWINPYTGGTNYAQKFQGRVTMTRDTSISTAYMELSRLRSDDTAVYYCARDIYGSSNYGGDVWGQGTTVTVSSASTKGPSVFPLAPSSKSTSGGTAALGCLVKDYFPEPVTVSWNSGALTSGVHTFPAVLQSSGLYSLSSVVTVPSSSLGTQTYICNVNHKPSNTKVDKRV[left out - human IgG1 Fc]
light: DIQMTQSPSSLSASVGDRVTITCQASQDISNYLNWYQQKPGKAPKLLIYDASNLETGVPSRFSGSGSGTDFTFTISSLQPEDIATYYCQQYDTLPLTFGGGTKVEIKRTVAAPSVFIFPPSDEQLKSGTASVVCLLNNFYPREAKVQWKVDNALQSGNSQESVTEQDSKDSTYSLSSTLTLSKADYEKHKVYACEVTHQGLSSPVTKSFNRGEC
B2: Ab5: anti-human TNFα antibody, HC SEQ ID NO: 25, LC SEQ ID NO: 28 (antibody)
heavy: QVQLVQSGAEVKKPGASVKVSCKASGYTFTGYYMHWVRQAPGQGLEWMGWINPYTGGTKYAQKFQGRVTMTRDTSISTAYMELSRLRSDDTAVYYCARDLYGSSNYGMDVWGQGTTVTVSSASTKGPCVFPLAPSSKSTSGGTAALGCLVKDYFPEPVTVSWNSGALTSGVHTFPAVLQSSGLYSLSSVVTVPSSSLGTQTYICNVNHKPSNTKVDKRV[left out - human IgG1 Fc with A378C (EU numbers)]
light: B1 light with D28G, S30R, T93K

Experiments:
[1] = test system: membrane human TNFα; assay: Inhibition of membrane TNFα induced apoptosis of L929 cells; format: cell-based
Description: (§1) To determine number of viable cells, assay medium was removed, and MTS-tetrazolium substrate mixture was added to the wells (100 μL) (where the mitochondrial dehydrogenase enzymes in metabolically active cells reduces the MTS-tetrazolium into a colored formazan product). The plates were placed in an incubator (37° C., 95% relative humidity, 5% CO2) for 2 hours. The cell death was determined by reading the plates at 490 nm on a microplate reader (Biotek Cytation 5 Imaging Multi-Mode Reader).
The non-cleavable TNFα construct was generated with known mutations at the cleavage sites of the TNFα which allowed for expression of bioactive TNFα on the cell surface (Mueller et. al. 1999) in the absence of TNFα cleavage. […] Human IgG1 isotype control antibody was used as a negative control. The L929 cell death was determined essentially as described for the soluble TNFα induced apoptosis assay.

[2] = test system: anti-drug antibodies against adalimumab; assay: ACE-Bridge binding to human patient anti-drug antibodies against adalimumab; details: FIG. 4
[3] = test system: dendritic cells; assay: Internalization into dendritic cells; format: cell-based, human; details: upon binding to TNFα on the cell surface
Description: Example 3a. […] CD14+monocytes were isolated from periphery blood mononuclear cells (PBMCs), cultured, and differentiated into immature dendritic cells (with IL-4 and GM-CSF), all using standard protocols. To obtain mature DCs, cells were treated with 1 μg/mL LPS (lipopolysaccharide) for 4 hours.
Cells were washed with 2% FBS PBS and resuspended in 100 μL 2% FBS PBS with Cytox Green live/dead dye. Data was collected on a BD LSR Fortessa X-20 and analyzed in FlowJo. Live single cells were gated, and percent of TAMRA fluorescence positive cells was recorded as the readout. To allow the comparison of molecules with data generated from different donors, a normalized internalization index was used. The internalization signal was normalized to IgG1 isotype (normalized internalization index=0) and an internal positive control PC (normalized internalization index=100) using the calculation:
where XTAMRA, IgG1 isotypeTAMRA, and PCTAMRA were the percent of TAMRA-positive population for the test molecule X, IgG1 isotype, and PC respectively.

[4] = test system: anti-drug antibodies against adalimumab; assay: ACE-Bridge binding to cynomolgus monkey anti-drug antibodies against adalimumab; details: FIG. 3
Description: Example 5a. […] The anti-adalimumab antibodies were detected using a titration of AP-HIMS in an ACE-Bridge assay. The assay was developed following the FDA Guidance on Immunogenicity testing. […] The following day, plates were washed three times with TBST and the captured anti-adalimumab antibodies were acid eluted using 65 μL/well of 300 mM acetic acid (Fisher Scientific, A38-500) for 5 min at room temperature. […] Next, 50 μL of the acid eluted samples were added to the polypropylene plate containing the mixture in neutralizing buffer and the ADA and were allowed to bridge to the labeled antibodies for 1 h at room temperature. MSD Gold 96-well streptavidin plates (Mesoscale, L15SA-1) were washed and blocked with TBS+1% BSA for 1 h at room temperature, then washed, and 80 μL of bridged samples were added to the plate for 1 h. The plates were washed three times with TBST, and 150 μL/well of 2×MSD Buffer (Mesoscale, R92TC-2) was added to the plates. Plates were read on an MSD SQ120 reader to provide the Tier 1 signal expressed as electro chemiluminescent units (ECLU).
The resulting ECLU signal was then plotted as a function of the concentration of AP-HIMS tested.

[5] = molecular target: soluble human TNFα (Homo sapiens, UniProt P01375); assay: Inhibition of soluble TNFα induced apoptosis of L929 cells; format: cell-based
Chain of soluble human TNFα (P01375 77-233 limits assumed): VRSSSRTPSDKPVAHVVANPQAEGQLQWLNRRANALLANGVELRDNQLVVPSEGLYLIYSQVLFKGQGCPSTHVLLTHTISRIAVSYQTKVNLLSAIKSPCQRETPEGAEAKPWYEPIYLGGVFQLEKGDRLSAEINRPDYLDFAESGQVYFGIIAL
Description: L929 mouse fibrosarcoma cells naturally express the TNF receptor. When combined with Actinomycin-D, TNFα induces classical apoptosis in these cells, resulting in rapid cell death due to excessive formation of reactive oxygen intermediates which can be rescued by TNFα neutralization. Briefly, L929 were cultured in assay medium (1× DMEM media, 10% FBS, 1% Pen-Strep, 1% MEM essential amino acids, 1% L-glutamine, 1% sodium pyruvate). On the day of the assay, the cells were rinsed with 1× PBS (no Ca^++ or Mg^++) and detached from culture flasks with 0.25% trypsin+EDTA. The trypsin was inactivated with assay medium. L929 cells were centrifuged at 1500 rpm for 5 minutes at room temperature. The cell pellet was resuspended in assay medium, and 1×10^4 L929 cells (in 100 μL) were added to 96-well plates and placed in a tissue culture incubator (37° C., 95% relative humidity, 5% CO2) overnight.
as §1

[6] = test system: MHC-II presented peptides on human dendritic cells; assay: MHC-associated peptide proteomics (MAPPs) assay; format: cell-based; details: 10 donors
Description: Example 6a. MHC-associated peptide proteomics (MAPPs) Assay: MAPPs profiles the MHC-II presented peptides on human dendritic cells previously treated with exemplified anti-human TNFα antibodies. CD14+monocytes were isolated from periphery blood mononuclear cells (PBMCs), cultured and differentiated into immature dendritic cells (with IL-4 and GM-CSF) using standard protocols. Exemplified antibodies were added to the immature dendritic cells on day 4 and fresh media containing LPS to transform the cells into mature dendritic cells was exchanged after 5-hour incubation. The matured dendritic cells were lysed in RIPA buffer with protease inhibitors and DNAse the following day. Immunoprecipitation of MHC-II complexes was performed using biotinylated anti-MHC-II antibody coupled to streptavidin beads. The bound complex was eluted and filtered. The isolated MHC-II peptides were analyzed by a mass spectrometer. Peptide identifications were generated by an internal proteomics pipeline using search algorithms with no enzyme search parameter against a bovine/human database with test sequences appended to the database. Peptides identified from the exemplified antibodies were aligned against the parent sequence.

| Molecule | Inhibition of membrane human TNFα induced apoptosis of L929 cells (in words) [1] | patient samples with low to no binding (ECLU signal below the cut-off point) ([2]; 21 serum samples of adalimumab-treated patients, cut-off 102 ECLU) | samples with ECLU signal above the cut-off point ([2]; cut-off 102 ECLU) | ECLU signal above the cut-off point in those five samples ([2]; within the variability of the assay) | Internalization into immature and mature dendritic cells (in words) [3] | binding to anti-drug antibodies against adalimumab (in words) [4] | share of the anti-drug antibodies against adalimumab recognized [4] | maximum ECLU signal ([4]; AP-HIMS from monkeys hyperimmunized with adalimumab, bridging with the labeled test antibody) [ECLU] | Inhibition of soluble human TNFα induced apoptosis of L929 cells (in words) [5] | Number of donors containing ≥1 cluster [6] | Number of non-germline clusters across all donors [6] |
| --- | --- | --- | --- | --- | --- | --- | --- | --- | --- | --- | --- |
| B1 | inhibited | 16 of the 21 | five out of 21 | less than 20% | internalize into immature and mature dendritic cells | low to no binding | about 10% | 4000 | inhibited | – | – |
| B2 | – | – | – | – | – | – | – | – | – | 8/10 | 3 |
